Results as given in publication PMC12040169 (PLOS Biology, 2025).
The list shows a part of the results.

The compounds below were run on T1, C. trachomatis L2/434/Bu expressing GFP (CTL2-GFP). Conditions: total inclusion area; 28.5 h, 10 µM; inhibitor.
T1 construct: L2/434/Bu GFP intracellular growth in HeLa cells
Design: species or system HeLa; C. trachomatis total inclusion area by high-content imaging, normalised to DMSO
Summary of the method: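 High-content images of fixed, Hoechst-stained infected cultures supply inclusion area and count (growth) plus nuclei number (viability), complementing bulk GFP/resorufin fluorescence. MIC determination is unchanged from the primary assay.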

Compared with `Fc1ccc(Sc2ccc(C(F)(F)F)cn2)cc1` [CBK115235], `Cc1ccc(-c2csc(NC(=O)c3ccc(F)cc3)n2)cc1` [CBK095107] is lower in “% of control remaining” value: 139.255 for the first, 92.9876 for the second.

Compared with `Cc1cc(CNC(=O)c2cc3ccccc3oc2=O)c2ccccc2n1` [CBK269834], `O=C(NCC1(CCO)CCOC1)c1c[nH]nc1-c1cc2ccccc2o1` (centres unmarked) [CBK305492] is lower in “% of control remaining” value: 101.426 for the first, 99.103 for the second.

First: O=c1n(C(c2ccccc2)c2ccccc2)ccn1S(=O)(=O)c1ccc2ccccc2c1 [CBK106623]
Second: c1ccc(CN(Cc2ccccc2)Cn2c3ccccc3c3ccccc32)cc1 [CBK263575]
The “% of control remaining” value of the first is lower: 80.1876 for the first, 103.661 for the second.

First: O=C(C1=C(O)C(=O)N(CCN2CCOCC2)C1c1cccc(Br)c1)c1ccco1 (centres unmarked) [CBK264490]
Second: Cc1occc1SCC(=O)Nc1ccc(CN2CCOCC2)cc1 [CBK306453]
The “% of control remaining” value of the first is higher: 113.596 for the first, 80.9795 for the second.

Going from `Cc1nc(C)n(CC(=O)NCCCc2ccc(Cl)cc2)n1` [CBK281559] to `CN(C)CCCNC(=O)c1cc(-c2ccc(Cl)cc2)[nH]n1` [CBK116564T], the “% of control remaining” value rises from 79.7488 to 108.054.

Compared with `O=C(O)C1CSC(c2cccc(Cl)c2Cl)N1` (centres unmarked) [CBK077526], `COc1ccc(S(=O)(=O)N2CCCCC2C(=O)O)cc1` (centres unmarked) [CBK077424] is higher in “% of control remaining” value: 80.0242 for the first, 114.348 for the second.

First: Nc1ncnc2nc(-c3ccncc3)nn12 [CBK288550]
Second: CN(CCc1ccncc1)C(=O)c1[nH]nc2c1CCCCC2 [CBK283151]
The “% of control remaining” value of the first is higher: 118.921 for the first, 73.8069 for the second.

Compared with `CCC(=O)N1CCN(CCCC(=O)c2ccc(F)cc2)CC1` [CBK025017C], `CCCN1CCC(CNC(=O)c2cnn(-c3ccc(F)cc3)c2)CC1` [CBK282466] is lower in “% of control remaining” value: 95.2918 for the first, 93.3993 for the second.

Going from `O=C(CN1CCN(C(=O)C2COc3ccccc3O2)CC1)Nc1ccc2c(c1)OCCO2` (centres unmarked) [CBK074777] to `O=C(CN1CCN(C/C=C/c2ccccc2)CC1)Nc1ccc(C2CCCCC2)cc1` [CBK074497], the “% of control remaining” value falls from 86.8392 to 82.503.

Compared with `O=C1NC2(CCN(C(=O)Cc3ccsc3)CC2)Nc2ccccc21` [CBK283963], `O=C(Cn1ccc2ccnc(-c3cccs3)c21)N1CCC(O)CC1` [CBK284736] is higher in “% of control remaining” value: 82.8105 for the first, 105.492 for the second.

Going from `Cc1cc(COc2nccnc2N2CCN(CC(N)=O)CC2)no1` [CBK084192] to `O=C(c1ccccc1)c1ccc(OCC(O)CN2CCN(c3ccccn3)CC2)cc1` (centres unmarked) [CBK266513], the “% of control remaining” value rises from 93.0683 to 102.598.

First: COCC(=O)NC1CC(C)(C)Cc2c1cnn2-c1ccc(C)cc1 (centres unmarked) [CBK282866]
Second: Cc1ccc(C2(C(=O)NCCn3ccnc3C)CCOCC2)cc1 [CBK281858]
The “% of control remaining” value of the first is lower: 74.1772 for the first, 104.352 for the second.

Going from `CN1CCC2(CC1)SC(=O)Nc1ccc(Br)cc12` [CBK017821B] to `O=C1NCCCC12CCN(Cc1ccc3ncccc3c1)CC2` [CBK284825], the “% of control remaining” value falls from 90.7429 to 89.8251.

Compared with `Clc1ccc(CNCc2cccnc2)cc1` [CBK086257C], `O=C(NCc1ccc(OC2CCNCC2)cc1)c1cnccn1` [CBK036359T] is higher in “% of control remaining” value: 93.4362 for the first, 123.13 for the second.

Compared with `COc1ccc2[nH]c3c(c2c1)CCNC31CCCN(Cc2ccc(OC(F)(F)F)cc2)C1` (centres unmarked) [CBK039387], `N#Cc1cccc(CN2CCCC3(CCN(C(=O)c4cc(F)c(F)cc4F)C3)C2)c1` (centres unmarked) [CBK131993] is higher in “% of control remaining” value: 81.0984 for the first, 91.2913 for the second.

Going from `CS(=O)(=O)c1nc(-c2ccccc2)ns1` [CBK017338] to `COc1cccc2sc(Nc3nc4ccc(S(C)(=O)=O)cc4s3)nc12` [CBK287472], the “% of control remaining” value rises from 43.5288 to 63.6878.

Going from `O=C(O)C1(NCc2ccc(F)cc2)CCCCC1` [CBK287270] to `O=C(Cc1ccc(F)cc1)N1C2CCC1CC(O)(c1ccco1)C2` (centres unmarked) [CBK284033], the “% of control remaining” value falls from 129.95 to 97.3873.

First: Cc1nn(-c2ccccc2)c(O)c1/C=N/c1ccccc1Sc1c(C)n[nH]c1C [CBK262048]
Second: Cc1ccc(S(=O)(=O)Oc2cccc(C(c3c(C)n[nH]c3O)c3c(C)n[nH]c3O)c2)cc1 [CBK265016]
The “% of control remaining” value of the first is lower: 81.5331 for the first, 100.215 for the second.

Going from `O=S(=O)(Nc1ncc(Br)c2cccnc12)c1cccc(C(F)(F)F)c1` [CBK073884] to `COc1ccccc1N1CCN(c2nccc3sc(S(=O)(=O)NCc4ccc(C(F)(F)F)c(F)c4)cc23)CC1` [CBK038270C], the “% of control remaining” value rises from 83.0051 to 91.4125.

First: Cc1cc(C)n(CC(=O)NCC(c2c(F)cccc2F)N(C)C)n1 (centres unmarked) [CBK305510]
Second: Cc1noc(C)c1NC(=O)c1cn(C)c2ccccc12 [CBK200312]
The “% of control remaining” value of the first is lower: 38.0816 for the first, 114.358 for the second.

Compared with `O[C@@H]1C[C@@H](c2nc(-c3ccc(F)cc3)no2)N(Cc2ncc[nH]2)C1` [CBK288849], `Cc1ccccc1Nc1nc(N)nc(CN2CC(C)OC(C)C2)n1` (centres unmarked) [CBK305856] is lower in “% of control remaining” value: 110.79 for the first, 70.8327 for the second.

Going from `O=C1CCC(C(=O)N2CC3(CCCC3)c3c(F)cccc32)CN1` (centres unmarked) [CBK304914] to `Cc1[nH]c2cccc(C(=O)N3CCCCC3CCNC(=O)c3ccccc3)c2c1C` (centres unmarked) [CBK285976], the “% of control remaining” value rises from 33.3169 to 62.4322.

Compared with `CC(=O)c1ccc(NC(=O)N(C)c2c(C)nc3ccc(C(=O)N4CCN(C(=O)c5ccco5)CC4)cn23)cc1` [CBK146930], `CS(=O)(=O)c1ccc(-c2cccc(COC3CCN(C(=O)Cc4cccc5ccccc45)CC3)c2)cc1` [CBK149510] is lower in “% of control remaining” value: 98.3221 for the first, 81.2507 for the second.

Going from `OC(CN[C@H]1CC[C@](O)(c2ccc(Cl)cc2)CC1)c1ccccc1` (some centres unmarked) [CBK016206] to `O=C(c1ccccc1)c1ccc(OCCO)cc1` [CBK000725], the “% of control remaining” value rises from 31.487 to 85.4059.

Going from `O=C(/C=C/c1ccc([N+](=O)[O-])cc1)c1ccc(O)c(O)c1` [CBK265028] to `O=C1S/C(=C\c2ccc(O)c([N+](=O)[O-])c2)C(=O)N1Cc1ccc(F)cc1` [CBK102928], the “% of control remaining” value rises from 71.2303 to 99.4488.

First: O=C(Nc1sc2c(c1C(=O)O)CCC2)c1cccs1 [CBK152437]
Second: CCOC(=O)Cc1csc(SCC(=O)N2CCc3ccccc32)n1 [CBK306190]
The “% of control remaining” value of the first is lower: 57.3062 for the first, 58.675 for the second.

Going from `CN(C)[C@H]1CCCC[C@@H]1n1c(-c2ccc(Cl)c(Cl)c2)n[nH]c1=O` [CBK010566] to `CS(=O)(=O)N1CC[C@H](c2nc3cc(Cl)ccc3o2)C1` [CBK289370], the “% of control remaining” value rises from 70.705 to 91.3435.

First: N#Cc1c(C(F)(F)F)cc(-c2ccccc2)nc1SCCC(=O)Nc1ccccc1O [CBK268191]
Second: O=C(CCn1c2ccccc2c2ccccc21)NNC(=S)Nc1ccccc1 [CBK262106]
The “% of control remaining” value of the first is lower: 77.4888 for the first, 86.2186 for the second.

First: CC(Cn1cncn1)C(=O)N1CCC(CCc2ccccc2F)CC1 (centres unmarked) [CBK281529]
Second: O=C(CSc1ncnc2ccccc12)N(Cc1ccccc1F)C1CC1 [CBK295610]
The “% of control remaining” value of the first is lower: 89.0369 for the first, 89.8022 for the second.

First: Nc1nc(OCCn2cccc2)cnc1-c1ccsc1 [CBK145162]
Second: Nc1ncc(-c2ccoc2)nc1Nc1ccc2[nH]ccc2c1 [CBK063868]
The “% of control remaining” value of the first is lower: 96.2195 for the first, 108.021 for the second.

Going from `Cc1ccc(OCC(=O)Nc2cc(Cl)ccc2O)cc1C` [CBK265968] to `Cc1ccc2nsnc2c1NC(=O)COc1ccc([N+](=O)[O-])cc1` [CBK033705], the “% of control remaining” value falls from 122.764 to 118.658.

Compared with `CN(Cc1ccccc1)c1nccnc1-c1ccccc1F` [CBK037410], `O=C(NCc1ccncc1)c1nccnc1-c1ccc(COc2ccccc2)cc1` [CBK050836] is higher in “% of control remaining” value: 72.8716 for the first, 94.2144 for the second.

Compared with `C=CCNC(=O)N[C@H]1[C@H](O)[C@@H](Oc2ccccc2)[C@@H]2OC[C@H]1O2` [CBK288812], `C/C(=N\NC(=O)CNC(=O)c1ccc(Br)cc1)c1ccccc1` [CBK262020] is higher in “% of control remaining” value: 100.196 for the first, 103.478 for the second.

Compared with `CCn1ccc(C(=O)NC(c2cncc(OC)c2)[C@H]2C[C@@H](O)C2)cc1=O` (some centres unmarked) [CBK307696], `COCCN(Cc1nccs1)C(=O)C1CCc2nn(C)c(=O)n2C1` (centres unmarked) [CBK306506] is higher in “% of control remaining” value: 75.3754 for the first, 94.44 for the second.

Going from `O=C(Nc1ncnc2c1nc(OCc1ccccc1)n2C1CC(O)C(CO)O1)c1ccccc1` (centres unmarked) [CBK201220] to `CCNC(=O)N1CC2(CCN(Cc3ccc4ccccc4c3)CC2)c2ccccc21` [CBK126696], the “% of control remaining” value falls from 96.6588 to 96.2553.

Compared with `[O-][n+]1c2c([n+]([O-])c3c1CCCC3)CCCCC2` [CBK263586], `Cc1cc(Cn2ccc(C(F)(F)F)n2)c(C)c(-c2c(C#N)c(N)nc3c2CCCCC3)c1` [CBK267928] is lower in “% of control remaining” value: 106.404 for the first, 97.5616 for the second.

First: O=C(NCCN1CCOCC1)C1CCN(Cc2ccccc2O)CC1 [CBK264324]
Second: O=c1oc2ccc(Cl)cc2n1C1CCN(Cc2ccco2)CC1 [CBK284342]
The “% of control remaining” value of the first is higher: 102.991 for the first, 74.1611 for the second.

Compared with `C=CCn1c(Cc2csc(NC(=O)c3ccc([N+](=O)[O-])c(C)c3)n2)n[nH]c1=S` [CBK295323], `O=C(O)c1ccc(-c2ccc(/C=C/c3nc(O)c([N+](=O)[O-])c(=O)[nH]3)o2)cc1Cl` [CBK267354] is higher in “% of control remaining” value: 116.451 for the first, 117.054 for the second.

First: Nc1ncc(-c2cccc(/C=C/C(=O)O)c2)nc1NCCCO [CBK063887]
Second: Cc1cc(C)n(-c2nc3cc(Cl)ccc3nc2NCc2ccc3c(c2)OCO3)n1 [CBK268482]
The “% of control remaining” value of the first is lower: 78.4905 for the first, 86.659 for the second.

Compared with `CC1CCCN(Cc2nc3c([nH]2)c(=O)n(C)c(=O)n3C)C1` (centres unmarked) [CBK306054], `COc1ccc(C2SCCCS2)cc1C(C)(C)C` [CBK018886] is higher in “% of control remaining” value: 40.7925 for the first, 105.644 for the second.
